{
  "source": "paper PMC4336329",
  "about": "(PLoS ONE, 2015)",
  "note": "Screen size: about 310,000 compounds; about 14,000 (4.5%) showed an effect of 50% or more. The effect is printed as a negative number. The list shows a part of the results.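 Also: peak tail current of the secondary pulse compared with the same well before compound.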",
  "data": [
    {"target": "human ether-à-go-go-related gene (hERG) potassium channel (human, UniProt Q12809)", "sequence (Q12809 whole entry, looked up)": "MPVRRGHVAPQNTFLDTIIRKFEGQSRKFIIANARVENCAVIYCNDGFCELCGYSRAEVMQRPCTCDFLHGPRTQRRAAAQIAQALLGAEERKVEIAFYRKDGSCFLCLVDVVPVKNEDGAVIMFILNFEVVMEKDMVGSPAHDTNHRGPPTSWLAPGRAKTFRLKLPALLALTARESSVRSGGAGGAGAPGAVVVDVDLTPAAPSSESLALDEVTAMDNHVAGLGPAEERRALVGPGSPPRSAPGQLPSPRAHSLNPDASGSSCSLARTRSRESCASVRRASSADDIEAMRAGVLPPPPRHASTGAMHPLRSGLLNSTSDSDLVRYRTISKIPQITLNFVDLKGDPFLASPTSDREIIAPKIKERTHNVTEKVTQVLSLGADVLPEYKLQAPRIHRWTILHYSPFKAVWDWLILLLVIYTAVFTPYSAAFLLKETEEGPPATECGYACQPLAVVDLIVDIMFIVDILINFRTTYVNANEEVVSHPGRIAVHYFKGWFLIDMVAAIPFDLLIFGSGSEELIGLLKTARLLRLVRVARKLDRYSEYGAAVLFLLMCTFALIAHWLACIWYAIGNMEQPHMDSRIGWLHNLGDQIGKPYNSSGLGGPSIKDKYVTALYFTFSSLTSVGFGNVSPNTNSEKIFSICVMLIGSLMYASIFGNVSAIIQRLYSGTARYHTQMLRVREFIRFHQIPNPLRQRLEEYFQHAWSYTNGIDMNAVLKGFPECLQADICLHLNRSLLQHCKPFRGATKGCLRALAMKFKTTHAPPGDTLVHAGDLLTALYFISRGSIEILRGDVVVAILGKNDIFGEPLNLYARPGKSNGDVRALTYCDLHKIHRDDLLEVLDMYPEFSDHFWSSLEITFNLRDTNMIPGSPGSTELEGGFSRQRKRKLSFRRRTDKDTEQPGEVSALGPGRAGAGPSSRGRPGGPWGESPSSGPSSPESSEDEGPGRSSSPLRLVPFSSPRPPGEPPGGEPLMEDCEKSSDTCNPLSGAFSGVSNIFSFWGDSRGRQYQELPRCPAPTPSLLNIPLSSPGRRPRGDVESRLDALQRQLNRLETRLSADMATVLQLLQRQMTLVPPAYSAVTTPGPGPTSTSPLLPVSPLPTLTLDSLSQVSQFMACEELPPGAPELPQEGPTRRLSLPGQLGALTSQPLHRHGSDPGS", "experiment": "primary screen, population patch clamp on CHO cells stably expressing hERG", "units": {"hERG current change (%, negative = inhibition) at 10uM": "%"}, "values": [
      {"smiles": "O=C(c1ccc2c(c1)OCCO2)C1CCN(S(=O)(=O)c2cccc(F)c2)CC1", "hERG current change (%, negative = inhibition) at 10uM": -18.7},
      {"smiles": "Cn1cc(CC(=O)NCc2ccc(F)cc2)c2ccccc21", "hERG current change (%, negative = inhibition) at 10uM": 5.76},
      {"smiles": "COc1ccccc1/C=C/C(=O)NCc1ccccn1", "hERG current change (%, negative = inhibition) at 10uM": 8.76},
      {"smiles": "N#C[C@@H]1N(Cc2ccccc2)C(=O)[C@H]2CC3C=CC21O3", "note": "(stereo partly drawn)", "hERG current change (%, negative = inhibition) at 10uM": -11.3},
      {"smiles": "Cc1cccc(NC(=S)N(CCCN2CCOCC2)Cc2cn(C)c3ccccc23)c1", "hERG current change (%, negative = inhibition) at 10uM": -10.8},
      {"smiles": "Cc1ncoc1C(=O)N1CCCC(CCC(=O)NCc2ccc(F)c(F)c2)C1", "note": "(stereo not drawn)", "hERG current change (%, negative = inhibition) at 10uM": 14.6},
      {"smiles": "CCC(C)[C@H](NC(=O)Nc1cccc(OC)c1)C(=O)OC", "note": "(stereo partly drawn)", "hERG current change (%, negative = inhibition) at 10uM": 15.9},
      {"smiles": "C/C(=N/NC(=O)CNC(=O)c1cccnc1)c1ccc([N+](=O)[O-])cc1", "hERG current change (%, negative = inhibition) at 10uM": -14.2},
      {"smiles": "COC(=O)CSc1ccnc2cc(Cl)ccc12", "hERG current change (%, negative = inhibition) at 10uM": 9.81},
      {"smiles": "CCCn1c(=O)[nH]c2ccccc21", "hERG current change (%, negative = inhibition) at 10uM": 13.9},
      {"smiles": "N#CCN(N=Nc1ccccc1)c1ccccc1", "hERG current change (%, negative = inhibition) at 10uM": 8.98},
      {"smiles": "CCn1c(=NC(=O)COc2ccccc2)sc2cccc(F)c21", "hERG current change (%, negative = inhibition) at 10uM": 15.2},
      {"smiles": "O=C(CCc1ccccc1)Nc1ccc(N2CCOCC2)c(Cl)c1", "hERG current change (%, negative = inhibition) at 10uM": -27.4},
      {"smiles": "Oc1ccc(/C=N/Nc2cccc3cccnc23)c(O)c1", "hERG current change (%, negative = inhibition) at 10uM": -1.82},
      {"smiles": "Cc1ccc2c(c1)NCC(C(=O)NC1CCC(C)CC1)O2", "note": "(stereo not drawn)", "hERG current change (%, negative = inhibition) at 10uM": 6.16},
      {"smiles": "O=C(NC1CCN(Cc2cccc([N+](=O)[O-])c2)CC1)c1ccccc1", "hERG current change (%, negative = inhibition) at 10uM": -53.7},
      {"smiles": "COc1ccc(Cl)c(Cn2c(NCC(C)O)nc3c2c(=O)n(C)c(=O)n3C)c1", "note": "(stereo not drawn)", "hERG current change (%, negative = inhibition) at 10uM": 0.12},
      {"smiles": "CCCSc1nc2c(c(=O)[nH]c(=O)n2C)n1C", "hERG current change (%, negative = inhibition) at 10uM": 2.58},
      {"smiles": "CN(CC(=O)Nc1cccc(F)c1)C(=O)c1csc2c1CCCC2", "hERG current change (%, negative = inhibition) at 10uM": 4.83},
      {"smiles": "Cc1ccc(NC(=O)NC2CC(=O)N(c3ccc4c(c3)OCCO4)C2)cc1F", "note": "(stereo not drawn)", "hERG current change (%, negative = inhibition) at 10uM": 1.62},
      {"smiles": "N#CCCN(C(=O)COC(=O)C1=NNC(=O)CC1)c1ccccc1", "hERG current change (%, negative = inhibition) at 10uM": 15.3},
      {"smiles": "CCC(CC)c1nnc(NC(=O)c2ccc(N3CCCC3=O)cc2)s1", "hERG current change (%, negative = inhibition) at 10uM": -8},
      {"smiles": "CC(C)(C)NS(=O)(=O)c1ccc(NC(=O)C2CCCO2)cc1", "note": "(stereo not drawn)", "hERG current change (%, negative = inhibition) at 10uM": 3.42},
      {"smiles": "CN1C(=O)CC(N2CCN(c3ccc(Cl)cc3)CC2)C1=O", "note": "(stereo not drawn)", "hERG current change (%, negative = inhibition) at 10uM": -23.6},
      {"smiles": "c1ccc(OCCOc2cccc3cccnc23)cc1", "hERG current change (%, negative = inhibition) at 10uM": -17.3},
      {"smiles": "COc1ccc(S(=O)(=O)Nc2ccc(S(=O)(=O)N3CCOCC3)cc2)cc1", "hERG current change (%, negative = inhibition) at 10uM": -10.5},
      {"smiles": "CCOc1cc(CN2CCSCC2)ccc1O", "hERG current change (%, negative = inhibition) at 10uM": -4.22},
      {"smiles": "CCOc1ccc(CCNC(=O)c2cc(S(=O)(=O)N3CCOCC3)ccc2C)cc1OCC", "hERG current change (%, negative = inhibition) at 10uM": 1.87},
      {"smiles": "Cc1ccc(OCC(=O)Nc2ccc(C)c(S(=O)(=O)N3CCCCCC3)c2)c([N+](=O)[O-])n1", "hERG current change (%, negative = inhibition) at 10uM": -32.2},
      {"smiles": "COC(=O)c1cccc(NC(=O)CSc2nnc(-c3ccco3)o2)c1", "hERG current change (%, negative = inhibition) at 10uM": 5.49},
      {"smiles": "Cc1cc(C(=O)CN2c3cccc4cccc(c34)S2(=O)=O)c(C)n1C", "hERG current change (%, negative = inhibition) at 10uM": 3.63},
      {"smiles": "COc1ccc(NC(=O)c2ccc(CNS(=O)(=O)c3cccc(OC)c3)cc2)cc1", "hERG current change (%, negative = inhibition) at 10uM": 1.5},
      {"smiles": "COc1ccc(OC)c(C2CC(=O)OC3=C2C(=O)CC(C)(C)C3)c1", "note": "(stereo not drawn)", "hERG current change (%, negative = inhibition) at 10uM": 0.996},
      {"smiles": "O=S(=O)(c1ccc(F)cc1)N1CC=C(c2ccccc2)CC1", "hERG current change (%, negative = inhibition) at 10uM": 1.9},
      {"smiles": "COc1ccc2c(c1)C(C)=CC(C)(C)N2S(=O)(=O)c1ccc(C)cc1", "hERG current change (%, negative = inhibition) at 10uM": -0.468},
      {"smiles": "COc1ccc(CCNc2cc(N3CCN(C(=O)c4ccccc4OC)CC3)ccc2[N+](=O)[O-])cc1OC", "hERG current change (%, negative = inhibition) at 10uM": 14.8},
      {"smiles": "Cc1ccc2cc(NC(=O)c3ccc(C(C)(C)C)cc3)ccc2n1", "hERG current change (%, negative = inhibition) at 10uM": -0.476},
      {"smiles": "O=C(CCNS(=O)(=O)c1ccccc1F)NCc1ccc2c(c1)OCO2", "hERG current change (%, negative = inhibition) at 10uM": 4.75},
      {"smiles": "c1ccc(Cc2nnc3sc(-c4ccccn4)nn23)cc1", "hERG current change (%, negative = inhibition) at 10uM": -6.6},
      {"smiles": "O=C(NC(=S)NCC1CCCO1)c1ccccc1[N+](=O)[O-]", "note": "(stereo not drawn)", "hERG current change (%, negative = inhibition) at 10uM": 12.5},
      {"smiles": "COc1ccc(C(=O)CN(C(=O)c2ccc(Cl)cc2)N2C(=O)c3ccccc3C2=O)cc1", "hERG current change (%, negative = inhibition) at 10uM": -1.94},
      {"smiles": "COc1ccc(CCNc2c([N+](=O)[O-])ncn2C)cc1OC", "hERG current change (%, negative = inhibition) at 10uM": 15.2},
      {"smiles": "CCOC(=O)Cc1csc(SCC(=O)c2c(N)n(CC(C)C)c(=O)n(C)c2=O)n1", "hERG current change (%, negative = inhibition) at 10uM": -2.23},
      {"smiles": "Cc1ccc(S(=O)(=O)NNC(=O)CCC(=O)Nc2ccc(C)cc2C)cc1", "hERG current change (%, negative = inhibition) at 10uM": 5.5},
      {"smiles": "Cc1cccn2c(CNCCc3ccccn3)c(C(=O)N3CCOCC3)nc12", "hERG current change (%, negative = inhibition) at 10uM": -2.02},
      {"smiles": "COc1ccc(C(=O)NNC(=O)CN(C)S(=O)(=O)c2ccc(Cl)cc2)c(OC)c1OC", "hERG current change (%, negative = inhibition) at 10uM": -49.7},
      {"smiles": "COC(=O)c1c(C)cc(O)c(C)c1O", "hERG current change (%, negative = inhibition) at 10uM": 12.4},
      {"smiles": "CC(=O)Nc1cccc(N2C(=O)CC(Cc3ccccc3)C2=O)c1", "note": "(stereo not drawn)", "hERG current change (%, negative = inhibition) at 10uM": -11.4},
      {"smiles": "CC1CN(CCc2ccccc2)CC(C)O1", "note": "(stereo not drawn)", "hERG current change (%, negative = inhibition) at 10uM": 11.1},
      {"smiles": "COc1ccc(S(=O)(=O)N2CCC(C(=O)N[C@H](C(=O)NC3CCCC3)C(C)C)CC2)cc1", "hERG current change (%, negative = inhibition) at 10uM": 14.5},
      {"smiles": "CCCn1c(SCC(=O)c2c(N)n(C3CC3)c(=O)[nH]c2=O)nc2cc(S(N)(=O)=O)ccc21", "hERG current change (%, negative = inhibition) at 10uM": -2.63},
      {"smiles": "CCCC(=O)Nc1nnc(/C=C/c2ccc(OC)cc2)s1", "hERG current change (%, negative = inhibition) at 10uM": 12.4},
      {"smiles": "COC(=O)c1oc2ccccc2c1NC(=O)/C=C/C(=O)O", "hERG current change (%, negative = inhibition) at 10uM": 9.76},
      {"smiles": "O=C(Nc1ccccc1F)C(=O)c1cn(CC(=O)N2CCCCC2)c2ccccc12", "hERG current change (%, negative = inhibition) at 10uM": 13.8},
      {"smiles": "C=C(C)CSc1nc2sc3c(c2c(=O)n1C1CCCCC1)CCN(C)C3", "hERG current change (%, negative = inhibition) at 10uM": -41.4},
      {"smiles": "N#Cc1nc(COc2ccc(-c3ccccc3)cc2)oc1NCc1cccnc1", "hERG current change (%, negative = inhibition) at 10uM": -19.3},
      {"smiles": "Cc1ccccc1-n1nnnc1SCC(C)C", "hERG current change (%, negative = inhibition) at 10uM": 6.93}
    ]}
  ]
}
